From PubChem BioAssay AID463173 (ICCB-Longwood Screening Facility, Harvard Medical School, 2010) come the findings set out here.

Among all 52,000 compounds or so, about 4,300 (8.3%) were called active. Rule as the data show it: active = survival mostly below about 52% (no sharp cut-off); inactive = mostly above about 56%. This is one part of the list.

The subject of the experiment is DeltatarO mutant. Nature of the experiment: S. aureus survival, RN4220 and DeltatarO strains – OD600, teichoic acid synthesis inhibitors, primary screen (AID 463173). The following applies: S. aureus RN4220 wild type/DeltatarO growth, OD600, 18 h, stronger effect = lower value, screened at 18.75 µg/mL (by protocol).
As to `COc1ccc(OCC(=O)N2CCN(C(=O)c3cccc(OC)c3OC)CC2)cc1`, the survival is inactive: 74%.
Next, `CC(C)Oc1ccc2ccc(=O)oc2c1`: inactive: 99%.
As for `CCOc1ccc(-c2cc(CCCC(=O)NCCc3ccc(SC)cc3)no2)cc1`, the figure is inactive: 48%; as for `COCCn1c(C)cc(O)c(C(c2ccccc2Cl)N2CCN(c3ccccc3)CC2)c1=O` (configuration not stated), inactive: 87%.
Next, `CC1CCCCN1C(=O)c1ccccc1NS(=O)(=O)c1ccc(F)cc1` (configuration not stated): inactive: 96%; `COc1cc(NC(=O)c2noc3c2CC(C(C)(C)C)CC3)cc(OC)c1OC` (configuration not stated): active: 40%.
For the compound `Cn1c(C(=O)NCc2ccccc2F)cc2cc(S(=O)(=O)N3CCCCC3)ccc21`, the survival was inactive: 96%.
As for `COc1ccc(NC(=O)CN(C)S(=O)(=O)c2ccc3nc(C)sc3c2)cc1Cl`, the figure is inactive: 82%; as for `COC(=O)c1sc2cccc(F)c2c1S(=O)(=O)NCc1ccccc1Cl`, inactive: 75%; as for `COc1ccc(CCNCc2c(C(=O)O)c(C)n(Cc3cccc(C)c3)c2C)cc1OC`, inactive: 96%.
Next, `Cc1cccc(Nc2nnc(-c3ccc(C)c(S(=O)(=O)N4CCOCC4)c3)c3ccccc23)c1`: inactive: 69%.
With `CCCOc1ccc(C(=O)Nc2ccc(NC(=O)c3ccc(Br)cc3)cc2)cc1`, the survival is inactive: 88%.
Regarding `Cn1c(Oc2cccc(Cl)c2)nc2c1c(=O)n(Cc1ccccc1Cl)c(=O)n2C`, the survival is inactive: 66%.
Next, `Cc1ccc(NS(=O)(=O)c2ccc3[nH]c4c(c3c2)CCCCCC4)cc1C`: active: -1%; `O=c1cc(Nc2cccc(Br)c2)[nH]c(=O)[nH]1`: inactive: 68%.
As to `CCOc1ccccc1CNC(=O)CCCn1c(=O)c2cccn2c2ccc(F)cc21`, the survival was active: 33%.
Next, `Cc1ccc(CNC(=O)c2cc(NS(=O)(=O)c3ccc(C)cc3)ccn2)cc1`: inactive: 102%.
As for `CCOC(=O)c1cc(S(=O)(=O)N(C)c2ccccc2)[nH]n1`, the figure is inactive: 118%; as for `CCOc1ccc(S(=O)(=O)Nc2ccc3c(c2)CCCN3S(=O)(=O)c2ccc(C)cc2)cc1`, inactive: 88%; as for `O=C(C1CC1)n1cc(C(=S)N2CCOCC2)c2ccccc21`, inactive: 55%.
Next, `COc1ccc(OC)c(NC(=O)CSc2nccn2-c2cc(C)cc(C)c2)c1`: inactive: 82%; `CC1CC(C)CN(S(=O)(=O)c2ccccc2)C1` (configuration not stated): inactive: 71%; `CC(=O)Nc1c(C)nn(-c2ccccc2)c1N1CCC(C(=O)Nc2ccc(Cl)cc2C)CC1`: inactive: 109%.
Regarding `COc1cc(NC(=O)CN2C(=O)C(c3ccc(C)cc3)=NC23CCCCCC3)cc(OC)c1`, the survival is inactive: 83%.
As for `Cc1ccc(-c2nc3ccccc3[nH]2)cc1NC(=O)COc1ccc(Cl)cc1Cl`, the figure is active: 18%; as for `Cc1cc(O)c(C(c2ccccc2)N2CCN(c3ccccc3F)CC2)c(=O)n1Cc1ccco1` (configuration not stated), inactive: 78%; as for `CCC(=O)N1CCc2cc(Br)cc(S(=O)(=O)CCC(=O)NCc3ccc(C)cc3)c21`, inactive: 94%.
As for `C=CCNC(=O)CN1CCN(c2ccccc2)CC1`, the figure is inactive: 87%; as for `COC(=O)c1sc(S(=O)(=O)N2CCN(c3ccc(OC)cc3)CC2)c(C(=O)OC)c1C`, inactive: 129%; as for `COc1ccc(CNC(=O)C(=O)Nc2ccccc2OC)cc1`, inactive: 67%.
As for `CCN(CC)S(=O)(=O)c1ccc(S(=O)(=O)N2CCN(C)CC2)cc1`, the survival is inactive: 90%.
As for `COC(=O)c1ccc(NC(=O)CSc2nccn2Cc2ccc(Cl)cc2)cc1`, the figure is inactive: 80%; as for `CCOc1ccc(-n2c(=O)c3c(C)c(C)sc3n(Cc3c(F)cccc3Cl)c2=O)cc1`, inactive: 96%; as for `COc1ccc(N2CCN(C(=O)CCc3nnc4n(C)c(=O)c5sccc5n34)CC2)cc1`, inactive: 58%.
Next, `COc1ccc(-n2c(=O)c3ccc(C(=O)NCc4ccc(C)cc4)cc3n(Cc3ccc(F)cc3Cl)c2=O)cc1`: inactive: 99%.
On to `CC1(C)N=C(c2ccc(F)cc2)C(=O)N1CC(=O)Nc1ccccc1Cl`, for which the survival was inactive: 95%.
Regarding `CCCC(=O)Nc1nc2c(s1)CC(C(C)(C)C)CC2` (configuration not stated), the survival was active: 14%.
Take `Cc1ccc(Cn2c3ccccc3c3cnn(CC(=O)N4CCCCCC4)c(=O)c32)cc1`: the survival was active: 19%.
Regarding `Cc1ccc(CN2C(=O)CC(c3ccc(Cl)cc3)c3c(C)nn(-c4nc(C)cc(C)n4)c32)cc1` (configuration not stated), the survival was inactive: 75%.
Next, `COc1ccc(-n2nc3c(c2NC(=O)C(=O)NCc2ccccc2)CSC3)cc1`: inactive: 84%; `O=C(Cn1c2ncccc2c(=O)n1-c1ccccc1)Nc1cccc(C(F)(F)F)c1`: inactive: 67%; `COc1cccc(-c2nc(S(=O)(=O)c3ccc(C)cc3)c(NCc3ccccc3)o2)c1`: inactive: 152%.
As to `COc1ccc(CN=C(N)N=C(N)N)cc1`, the survival is inactive: 95%.
Next, `COc1ccc(N2C(=O)CS(=O)(=O)C23C(=O)N(Cc2ccccc2)c2ccccc23)cc1` (configuration not stated): inactive: 76%.
Take `Clc1cccc(N2CCN(c3nc4ccccc4c4nc(-c5ccccc5)nn34)CC2)c1`: the survival is inactive: 85%.
As for `CCOc1ccc(-c2nc(CSCC(=O)NCCc3ccccc3)c(C)o2)cc1`, the figure is inactive: 55%.
As for `CCN1CCN(c2cc(C)c3cc(NC(=O)c4cc(OC)c(OC)c(OC)c4)ccc3n2)CC1`, the figure is inactive: 78%; as for `COc1cccc(CNC(=O)CCCn2c(=O)c3cccn3c3ccc(F)cc32)c1OC`, active: 43%; as for `Cc1cc(C)cc(NC(=O)Cn2c(=O)n(CCC(C)C)c(=O)c3cccnc32)c1`, inactive: 73%.
With `CCN(CC)C(C(=O)O)c1ccccc1` (configuration not stated), the survival was inactive: 98%.
Next, `CCc1ccc2oc(C(=O)N(Cc3cccc(Cl)c3)Cc3ccco3)c(C)c2c1`: inactive: 53%; `Cn1c(=O)cc(SCC(=O)NCCc2ccc(Cl)cc2)c2cc(Cl)ccc21`: inactive: 75%; `Cc1cccc(-c2nc3c4ccccc4n(CC(=O)Nc4cccc(F)c4)c(=O)n3n2)c1`: inactive: 95%.
For the compound `CC(C)(C)OC(=O)N1CCC(c2c(C(=O)N3CCN(c4ccccc4F)CC3)cnn2C(C)(C)C)CC1`, the survival is inactive: 68%.
Next, `CCOC(=O)C1CCN(c2csc3ccc(C)cc3c2=O)CC1`: inactive: 85%; `COC(=O)c1cc2sc(C)cc2n1Cc1nc(-c2cccc(Br)c2)oc1C`: inactive: 88%.
As for `Cc1ccc(NC(=O)c2nc[nH]c2C(=O)N2CCCCC2)c(C(=O)c2ccccc2)c1`, the figure is inactive: 82%.
